Whole data set: some 33,000 sequences, median “E-score (-0.5 to 0.5)” near -0.056, cut for the highest 2% near 0.38. This is one part of the list.
These sequences were tested against Stb4 (UniProt P50104) (assay: PBM E-score (8-mer binding enrichment) (E-score (-0.5 to 0.5)); higher = stronger / more preferred TF binding; most listed sequences are background and not binding sites). Conditions: protein concentration: 200 nM; construct: GST-DNA-binding domain.
In short: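 E-scores (a modified Wilcoxon-Mann-Whitney statistic) were assigned by the Universal PBM Analysis Suite to every ungapped eight-base word pooled with its reverse complement. The input came from universal all-10-mer Agilent arrays made double-stranded by primer extension and probed with GST-tagged yeast transcription factors at about 100-200 nM. Fluorescent anti-GST detected bound protein, and masliner normalised the scans.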

Sequence | PBM E-score
CACACCAA | 0.0484
GCCACCAA | -0.238
ATGTCATA | -0.0715
CTGCTCCA | -0.151
TCGTCGAA | -0.33
AGCTTTTG | -0.112
GTTCTAGA | 0.055
CACTAGGG | -0.332
GGACACAC | 0.136
AGTACAAC | 0.019
ACTCAGGG | -0.0932
CGAGCGCG | 0.235
CCTAGTTC | -0.0435
CAATGCGG | 0.0433
AAGTATAG | -0.0669
AGCCGCGC | 0.182
AGAGCGTG | 0.0442
CCATGACC | -0.123
ATGCGAAA | -0.0603
CTTATCTA | -0.0636
ACACAGGT | -0.37
ATAAGTAG | -0.157

Sequence | PBM E-score
AGTGGGAC | -0.0624
AGGTGGCC | -0.11
CACAAGGG | -0.193
AATGAAGA | -0.166
GGCCCGCA | 0.151
CCTTCCAG | -0.252
AGATGCCA | -0.263
GGTCTCCA | -0.167
GAGTCTTA | -0.104
AATTACGA | -0.0893
CCTTGACG | -0.0355
AGGATCTA | -0.258
GGAAAAGA | 0.0273
ATTACGGA | 0.296
GGCCGCAC | -0.00613
AATCCCGT | 0.303
TCGTAACA | 0.0194
GATGTAAA | -0.182
AGAGGTAA | -0.00757
GATCCGAA | 0.482
TATGATCA | -0.194
AGGGAAAC | -0.0995

Sequence | PBM E-score
ATGGAACA | -0.272
CACTAAAA | -0.1
CGTTAAAC | -0.127
CCCTTAGC | 0.0903
CTCCTTGC | -0.268
GGCCGAAA | 0.319
AACGAAGA | -0.134
AAACGGTC | 0.0505
CCTATGGC | -0.183
AGAATGGG | -0.0976
GCCGCGCA | 0.0339
ACTCAGGA | -0.137
AAAACGTG | -0.208
AAGATCGG | 0.339
GCGGTAAC | 0.178
CTCACTGA | -0.243
GGGCAGAC | -0.0126
CACCGGCC | 0.0878
GGCAGTGA | 0.0105
ACTTTCGA | -0.0194
GCGTACGC | 0.0157
AAAAGTTA | -0.0852

Sequence | PBM E-score
AATCGGCA | 0.32
CAAAAGAG | -0.0893
CCTACAGG | -0.142
TCTTTCCA | -0.0186
CCAGCCCG | 0.0792
AAAGGTAA | -0.18
ATAACAAG | 0.0631
CGATGGAC | 0.0198
AATTCAAC | 0.015
GACTACGC | -0.0939
ACTATCCG | 0.45
CTCCGGAA | 0.391
ATATTTGG | 0.0131
CCGGCACA | 0.307
ATATAAAA | 0.0335
AGAGGCCG | -0.165
ACGGTTTA | -0.00687
ACTTATCT | -0.211
ATTGATGC | -0.0518
CGATCGAG | 0.225

— the supplement of paper PMC3334620
